Laboratory results reported in PMC4336329 (PLoS ONE, 2015).
The campaign covered roughly 310,000 compounds. About 2,200 (0.71%) showed an effect of 50% or more. Effects have a minus sign here. Some of the results follow.

Target: human ether-à-go-go-related gene (hERG) potassium channel (human, UniProt Q12809)
Test: primary screen, population patch clamp on CHO cells stably expressing hERG

Sequence of human ether-à-go-go-related gene (hERG) potassium channel (Q12809 whole entry, looked up): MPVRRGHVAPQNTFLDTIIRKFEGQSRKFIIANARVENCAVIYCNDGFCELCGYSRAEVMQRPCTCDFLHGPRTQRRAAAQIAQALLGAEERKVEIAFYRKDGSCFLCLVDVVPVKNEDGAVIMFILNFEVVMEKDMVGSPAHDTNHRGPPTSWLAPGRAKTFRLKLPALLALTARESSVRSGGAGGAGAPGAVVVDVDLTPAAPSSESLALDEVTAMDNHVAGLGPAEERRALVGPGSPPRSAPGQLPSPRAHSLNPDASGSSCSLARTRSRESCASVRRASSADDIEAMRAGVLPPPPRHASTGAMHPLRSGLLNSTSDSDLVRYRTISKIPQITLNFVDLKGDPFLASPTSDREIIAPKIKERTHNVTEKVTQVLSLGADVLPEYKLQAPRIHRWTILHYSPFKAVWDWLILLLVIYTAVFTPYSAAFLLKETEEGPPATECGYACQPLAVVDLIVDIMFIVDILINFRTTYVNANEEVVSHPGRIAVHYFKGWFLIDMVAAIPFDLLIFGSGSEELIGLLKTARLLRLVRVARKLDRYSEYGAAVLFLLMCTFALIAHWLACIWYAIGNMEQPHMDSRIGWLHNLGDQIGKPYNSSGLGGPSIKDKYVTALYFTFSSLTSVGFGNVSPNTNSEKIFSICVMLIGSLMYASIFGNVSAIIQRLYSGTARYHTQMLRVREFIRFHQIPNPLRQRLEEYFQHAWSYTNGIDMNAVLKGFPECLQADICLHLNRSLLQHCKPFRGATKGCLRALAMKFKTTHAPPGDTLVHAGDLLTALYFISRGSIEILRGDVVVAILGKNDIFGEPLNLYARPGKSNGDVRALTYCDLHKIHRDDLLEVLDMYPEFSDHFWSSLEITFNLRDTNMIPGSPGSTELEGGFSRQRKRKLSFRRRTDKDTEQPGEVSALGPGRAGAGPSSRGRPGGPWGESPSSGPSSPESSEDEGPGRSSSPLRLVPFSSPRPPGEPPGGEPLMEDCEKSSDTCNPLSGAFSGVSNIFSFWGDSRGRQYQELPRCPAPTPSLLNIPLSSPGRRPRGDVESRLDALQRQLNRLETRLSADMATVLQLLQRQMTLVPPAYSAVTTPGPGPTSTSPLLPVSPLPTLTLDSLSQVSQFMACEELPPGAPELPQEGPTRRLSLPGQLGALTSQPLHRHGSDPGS

First: Cc1nc(=O)c(-c2ccccc2)c(C)n1-c1ccc(Br)cc1
Second: Fc1ccc(-c2n[nH]c(=S)c3ccccc23)cc1
The “hERG current change (%, negative = inhibition) at 1uM” value of the first is higher: 12.6% for the first, 9.98% for the second.

Compared with `CCn1c(=O)n(CC)c2cc(N3CCCC3)c(NC(=O)c3cccc(C)c3)cc21`, `CC(=O)N1CCc2cc(S(=O)(=O)NCCC(=O)Nc3cc(C)cc(C)c3)ccc21` is lower in “hERG current change (%, negative = inhibition) at 1uM” value: 13.9% for the first, 10.1% for the second.

First: N#Cc1c(-c2ccco2)nc(SCC(=O)Nc2ccc(S(N)(=O)=O)cc2)[nH]c1=O
Second: Cc1ccc(NC(=O)CSc2cn[nH]n2)cc1
The “hERG current change (%, negative = inhibition) at 1uM” value of the first is lower: 4.26% for the first, 11.5% for the second.

First: CN(CC(=O)Nc1ccc(Cl)c(Cl)c1)CC(=O)Nc1ccc2c(c1)OCO2
Second: Cc1ccccc1OCCCC(=O)Nc1ccc2c(c1)OCO2
The “hERG current change (%, negative = inhibition) at 1uM” value of the first is higher: 13.6% for the first, 9.25% for the second.

Going from `CCOc1ccc(N2C(=O)CC(NCCc3ccncc3)C2=O)cc1` (stereo not drawn) to `COc1ccc(Cc2nnc(NC(=O)CS(=O)(=O)Cc3ccccc3)s2)cc1`, the “hERG current change (%, negative = inhibition) at 1uM” value rises from 4.99% to 18.5%.

Compared with `Cc1c(Br)c([N+](=O)[O-])nn1C(C)C(=O)N1CCc2ccccc2C1` (stereo not drawn), `O=C1CC2(CCN(C(=O)c3ccccc3Br)CC2)Oc2ccccc21` is lower in “hERG current change (%, negative = inhibition) at 1uM” value: 9.83% for the first, -51.4% for the second.

First: O=C1C=C(c2ccccc2)CC(c2cccs2)C1n1cnc([N+](=O)[O-])c1 (stereo not drawn)
Second: O=C(Nc1ccc(NC(=O)c2cccs2)cc1)c1ccccc1
The “hERG current change (%, negative = inhibition) at 1uM” value of the first is lower: 9.79% for the first, 14.5% for the second.

Going from `Cc1ccc(/C=C2/C(=O)NC(=O)N(CCc3ccc(F)cc3)C2=O)o1` to `CC(=O)C1=C(O)C(=O)N(c2ccc(S(=O)(=O)Nc3nccs3)cc2)C1c1ccc(F)cc1` (stereo not drawn), the “hERG current change (%, negative = inhibition) at 1uM” value rises from 2.54% to 17.1%.

Going from `O=C(CNS(=O)(=O)c1cccc(F)c1)OCC(=O)N1CCCC1=O` to `CN(Cc1ccccc1)C(=O)COC(=O)c1cc([N+](=O)[O-])ccc1N1CCOCC1`, the “hERG current change (%, negative = inhibition) at 1uM” value falls from -1.51% to -3.85%.

Going from `COc1ccc2c(c1)-c1nc(NC(=O)c3cccs3)sc1CC2` to `COc1cccc(C(=O)Nc2nnc(S(=O)(=O)N(C)Cc3ccc(F)cc3)s2)c1`, the “hERG current change (%, negative = inhibition) at 1uM” value rises from -4.19% to 9.39%.

First: CC(=O)Nc1ccc(N2C(=O)c3ccc(C(=O)Nc4nnc(SCc5ccc(F)cc5)s4)cc3C2=O)cc1
Second: CCc1ccc(NC(=O)CSc2ccc(-c3ccccn3)nn2)cc1
The “hERG current change (%, negative = inhibition) at 1uM” value of the first is higher: 12.7% for the first, 8.33% for the second.

First: CCCOc1ccc(OCCOCCN2CCc3ccccc3C2)cc1
Second: CCCCOc1ccc(C2C(C(=O)c3ccc(C)o3)=C(O)C(=O)N2CC2CCCO2)cc1 (stereo not drawn)
The “hERG current change (%, negative = inhibition) at 1uM” value of the first is lower: -33.2% for the first, 8.28% for the second.

Going from `CS(=O)(=O)N1CCN(c2ccccc2NC(=O)c2ccco2)CC1` to `COc1ccc(C(=O)Nc2ccc(N3CCN(Cc4ccccc4)CC3)cc2)cc1`, the “hERG current change (%, negative = inhibition) at 1uM” value rises from -8.16% to 4.76%.

Going from `COc1ccc(S(=O)(=O)N2CCOCC2)cc1NC(=O)Cn1nnc2ccccc2c1=O` to `O=C(C1CCCCN1S(=O)(=O)c1ccccc1[N+](=O)[O-])N1CCOCC1` (stereo not drawn), the “hERG current change (%, negative = inhibition) at 1uM” value rises from -4.67% to 3.29%.

First: Cc1ccc(NC(=O)Nc2cnccn2)cc1
Second: O=C(CCC(=O)Nc1ccc(F)cc1)N/N=C/c1ccncc1
The “hERG current change (%, negative = inhibition) at 1uM” value of the first is lower: 7.58% for the first, 13.2% for the second.

First: CCN(CC(=O)Nc1ccc2c(c1)OCCO2)C(=O)c1cccc(OCC(C)C)c1
Second: O=C(NCc1ccc2c(c1)OCO2)c1ccc(NS(=O)(=O)c2ccc3c(c2)OCCO3)cc1
The “hERG current change (%, negative = inhibition) at 1uM” value of the first is lower: 4.01% for the first, 17.7% for the second.

Compared with `CCO[C@@H]1OC(C(=O)N2CCN(Cc3ccc4c(c3)OCO4)CC2)=C[C@H](C)[C@H]1CCCO`, `COc1ccc(N=C2SC(C(=O)Nc3ccc4c(c3)OCO4)CC(=O)N2C)cc1` (stereo not drawn) is higher in “hERG current change (%, negative = inhibition) at 1uM” value: -0.774% for the first, 14.4% for the second.

First: CC(=O)Nc1cccc(/C(C)=N\NC(=O)c2ccc(Cn3nc([N+](=O)[O-])c(Cl)c3C)o2)c1
Second: COC(=O)c1nc2n(n1)C(c1ccc([N+](=O)[O-])cc1)C(C(=O)Nc1ccc(Cl)cc1)=C(C)N2 (stereo not drawn)
The “hERG current change (%, negative = inhibition) at 1uM” value of the first is higher: 21.6% for the first, 19.1% for the second.

First: CCCOc1ccccc1C1CC(=O)Nc2cc3c(cc21)OCO3 (stereo not drawn)
Second: CCC(=O)N(Cc1cc(=O)[nH]c2ccccc12)c1ccc(C)cc1C
The “hERG current change (%, negative = inhibition) at 1uM” value of the first is higher: 7.2% for the first, 3.68% for the second.

First: Cc1cccc(NC(=S)NCc2ccccc2Cl)c1C
Second: S=C(Nc1ccc(Cl)cc1)c1nc2ccccc2s1
The “hERG current change (%, negative = inhibition) at 1uM” value of the first is higher: 10.4% for the first, 7.27% for the second.

Compared with `CCCSc1nc2c(c(=O)[nH]c(=O)n2C)n1CCc1ccccc1`, `CCn1c(=O)cc(OCC(=O)O)c2ccccc21` is higher in “hERG current change (%, negative = inhibition) at 1uM” value: 9.48% for the first, 12.9% for the second.

Going from `Cc1cc(NC(=O)Cn2nc(C(F)(F)F)c3c2CCC3)n(-c2ccccc2)n1` to `Cc1cc(C)cc(-n2ncc3c2CCCC3NC(=O)CN2CCCCC2=O)c1` (stereo not drawn), the “hERG current change (%, negative = inhibition) at 1uM” value rises from -5.4% to 12.2%.

Going from `Cc1ccc2c(c1)C(=O)CC1(CCCCCC1)O2` to `CC1CCCN(C(=O)c2cc3c(=O)n4ccccc4nc3s2)C1` (stereo not drawn), the “hERG current change (%, negative = inhibition) at 1uM” value falls from 14.4% to 11.6%.

Going from `CCc1c(C)nc2nc(SCc3ccccc3Cl)[nH]n2c1=O` to `COc1ccccc1Nc1ncnc2c1c(C)c(C)n2CCCN(C)C`, the “hERG current change (%, negative = inhibition) at 1uM” value falls from 14.7% to 6.99%.

Going from `CCN(CC)CCNC(=O)Cn1cnc2sc(C)c(S(=O)(=O)N3CCC(C)CC3)c2c1=O` to `Cc1ccc(C2/C(=C(/O)c3cnn(-c4ccccc4)c3C)C(=O)C(=O)N2CCCN2CCOCC2)o1` (stereo not drawn), the “hERG current change (%, negative = inhibition) at 1uM” value falls from 17.3% to 12%.

Going from `COc1ccc(N2CCN(C(=O)NCc3cccc(OC)c3)CC2)cc1` to `COC(=O)c1ccc(CSc2nc(-c3ccco3)cc(C(F)(F)F)n2)o1`, the “hERG current change (%, negative = inhibition) at 1uM” value falls from 13.3% to -17.8%.

First: CC(C)=CCC/C(C)=C/CC/C(C)=N/O
Second: O=C1C(=O)c2ccccc2C(O)=C1C1CCC(c2ccc(Cl)cc2)CC1 (stereo not drawn)
The “hERG current change (%, negative = inhibition) at 1uM” value of the first is lower: -5.72% for the first, 12.3% for the second.
